Measurements: the RNAGym collection of RNA variant scans (doi:10.1101/gad.245936.114)
Variants at the background level are over-represented here.

B1: tRNA (parent)
chain: CUCUCGGUAGCCAAGUUGGUUUAAGGCGCAAGACUUUAAUUUAUCACUACGAAAUCUUGAGAUCGGGCGUUCGACUCGCCCCCGGGAGAUUUUUUCCUCGAGCAA

Variants of: B1
Experiment: nonsense suppression (GFP-seq) (ratio to wild type); higher = more function; SUP4oc tRNA, yeast GFP reporter sort-seq
In short: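 To measure nonsense suppression, tRNA variants from a library carrying ~3% random mutations were integrated into the yeast genome alongside RFP and a GFP ochre reporter under galactose control. Growth took place in raffinose/galactose medium supplemented with 80 mg/L adenine, followed by sorting into GFP/RFP bins and Illumina sequencing of each bin (phred ≥30). For each variant with ≥100 reads and ≥30 cells, the bin median GFP/RFP values were weighted by its estimated cell share per bin and referenced to the unmutated parent tRNA.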
Variant C5U has a nonsense suppression of 0.096.
With C5U A9G A23C A24C the nonsense suppression was ≤ 0.026.
For C5U A9U G18U, the nonsense suppression was ≤ 0.026.
With C5U A9U U35A U57G the nonsense suppression was ≤ 0.026.
With C5U A13C A31G the nonsense suppression was ≤ 0.026.
In the case of C5U A13G U16C C82A, the nonsense suppression is reported as ≤ 0.026.
With C5U A13U A24C G59U the nonsense suppression was ≤ 0.026.
For C5U A13U U57C C72U, the nonsense suppression was ≤ 0.026.
For C5U A14C U16G U57C C82A, the nonsense suppression was ≤ 0.026.
In the case of C5U A14G, the nonsense suppression is reported as ≤ 0.026.
With C5U A14U the nonsense suppression was ≤ 0.026.
With C5U A14U G28U the nonsense suppression was ≤ 0.026.
Variant C5U A23G has a nonsense suppression of 0.0405.
For C5U A23G C80G G88C, the nonsense suppression was ≤ 0.026.
In the case of C5U A23G G26C G78A, the nonsense suppression is reported as ≤ 0.026.
In the case of C5U A23U, the nonsense suppression is reported as ≤ 0.026.
For C5U A23U G85A, the nonsense suppression was ≤ 0.026.
With C5U A23U U63C the nonsense suppression was ≤ 0.026.
In the case of C5U A24C, the nonsense suppression is reported as ≤ 0.026.
In the case of C5U A24C A54U, the nonsense suppression is reported as ≤ 0.026.
For C5U A24G A33G A74C G78C, the nonsense suppression was ≤ 0.026.
For C5U A24G A33U U63C, the nonsense suppression was ≤ 0.026.
For C5U A24G G88A, the nonsense suppression was ≤ 0.026.
With C5U A24U U70C A74C G84C the nonsense suppression was ≤ 0.026.
With C5U A30U C34G A54G U63A G88C the nonsense suppression was ≤ 0.026.
In the case of C5U A30U U63A C79G, the nonsense suppression is reported as ≤ 0.026.
For C5U A33G U63C, the nonsense suppression was ≤ 0.026.
For C5U A54C, the nonsense suppression was ≤ 0.026.
For C5U A54U C82U, the nonsense suppression was ≤ 0.026.
With C5U A60G U63C G66A C79A the nonsense suppression was ≤ 0.026.
For C5U A62G C77G C80U, the nonsense suppression was ≤ 0.026.
For C5U A74U U76C C83A, the nonsense suppression was ≤ 0.026.
C5U A87G showed a nonsense suppression of 0.0561.
With C5U C11A the nonsense suppression was ≤ 0.026.
With C5U C11A G66A A89G the nonsense suppression was ≤ 0.026.
In the case of C5U C11G, the nonsense suppression is reported as ≤ 0.026.
With C5U C11U C34A G85A the nonsense suppression was ≤ 0.026.
For C5U C12G, the nonsense suppression was ≤ 0.026.
With C5U C12U the nonsense suppression was ≤ 0.026.
With C5U C12U U58C G59C the nonsense suppression was ≤ 0.026.
With C5U C27U U55C G84A the nonsense suppression was ≤ 0.026.
With C5U C27U U70C the nonsense suppression was ≤ 0.026.
With C5U C29A A60U G85C the nonsense suppression was ≤ 0.026.
In the case of C5U C29G, the nonsense suppression is reported as ≤ 0.026.
For C5U C29U A54C C64U A87U, the nonsense suppression was ≤ 0.026.
In the case of C5U C29U G69C C83G, the nonsense suppression is reported as ≤ 0.026.
In the case of C5U C34A, the nonsense suppression is reported as ≤ 0.026.
In the case of C5U C34A C64U, the nonsense suppression is reported as ≤ 0.026.
For C5U C34U A54C G69U G78U, the nonsense suppression was ≤ 0.026.
For C5U C56A C80G G84A, the nonsense suppression was ≤ 0.026.
In the case of C5U C56G G69U, the nonsense suppression is reported as ≤ 0.026.
In the case of C5U C68A U76C, the nonsense suppression is reported as ≤ 0.026.
Work on C5U C75A yielded a nonsense suppression of 0.209.
In the case of C5U C79A, the nonsense suppression is reported as ≤ 0.026.
With C5U C79G the nonsense suppression was ≤ 0.026.
In the case of C5U C79G C81A, the nonsense suppression is reported as ≤ 0.026.
For C5U C82A, the nonsense suppression was ≤ 0.026.
In the case of C5U C83G, the nonsense suppression is reported as ≤ 0.026.
With C5U G6C A13C C27U C34A U58G A60C C68A the nonsense suppression was ≤ 0.026.
With C5U G6U G7A the nonsense suppression was ≤ 0.026.
For C5U G7A C77G, the nonsense suppression was ≤ 0.026.
For C5U G7A C77U, the nonsense suppression was ≤ 0.026.
With C5U G7A G61C the nonsense suppression was ≤ 0.026.
For C5U G7A U20G, the nonsense suppression was ≤ 0.026.
For C5U G7C, the nonsense suppression was ≤ 0.026.
With C5U G7U G25A the nonsense suppression was ≤ 0.026.
With C5U G10A G73U the nonsense suppression was ≤ 0.026.
With C5U G10A U71G the nonsense suppression was ≤ 0.026.
In the case of C5U G10U C12U A54G, the nonsense suppression is reported as ≤ 0.026.
With C5U G10U U55A the nonsense suppression was ≤ 0.026.
For C5U G15A C29U, the nonsense suppression was ≤ 0.026.
In the case of C5U G15C A54G, the nonsense suppression is reported as ≤ 0.026.
In the case of C5U G18C, the nonsense suppression is reported as ≤ 0.026.
For C5U G18U, the nonsense suppression was ≤ 0.026.
With C5U G18U C56G G66A the nonsense suppression was ≤ 0.026.
In the case of C5U G18U G25C A89G, the nonsense suppression is reported as ≤ 0.026.
With C5U G19A A33G G66A G84C the nonsense suppression was ≤ 0.026.
With C5U G25U A30U the nonsense suppression was ≤ 0.026.
In the case of C5U G28A U55C C75G, the nonsense suppression is reported as ≤ 0.026.
For C5U G28C, the nonsense suppression was 0.0292.
In the case of C5U G28C A30G A33U, the nonsense suppression is reported as ≤ 0.026.
With C5U G28C A31U the nonsense suppression was ≤ 0.026.
With C5U G28U G78U A89G the nonsense suppression was ≤ 0.026.
For C5U G59C, the nonsense suppression was ≤ 0.026.
In the case of C5U G59U, the nonsense suppression is reported as ≤ 0.026.
For C5U G65A, the nonsense suppression was ≤ 0.026.
For C5U G65C G88U, the nonsense suppression was ≤ 0.026.
For C5U G65U U76A, the nonsense suppression was ≤ 0.026.
With C5U G66C G69C the nonsense suppression was ≤ 0.026.
In the case of C5U G66U C82G, the nonsense suppression is reported as ≤ 0.026.
In the case of C5U G67A, the nonsense suppression is reported as ≤ 0.026.
In the case of C5U G67U C79G, the nonsense suppression is reported as ≤ 0.026.
For C5U G84C, the nonsense suppression was ≤ 0.026.
With C5U G85C G88U the nonsense suppression was ≤ 0.026.
C5U G85U showed a nonsense suppression of 0.0303.
For C5U G86C, the nonsense suppression was ≤ 0.026.
In the case of C5U G88A, the nonsense suppression is reported as ≤ 0.026.
For C5U U8A A9C G10C C12U G25U A31G, the nonsense suppression was ≤ 0.026.
For C5U U8A A9G C34A, the nonsense suppression was ≤ 0.026.
In the case of C5U U8A U35C U70G C80U, the nonsense suppression is reported as ≤ 0.026.
With C5U U8C C11G C27G C83G the nonsense suppression was ≤ 0.026.
For C5U U8C G67C, the nonsense suppression was ≤ 0.026.
For C5U U8C U20G, the nonsense suppression was ≤ 0.026.
In the case of C5U U8G C12A A24G C27U G66A, the nonsense suppression is reported as ≤ 0.026.
With C5U U8G C56A U58G U76G the nonsense suppression was ≤ 0.026.
With C5U U16A the nonsense suppression was ≤ 0.026.
With C5U U16A C81G the nonsense suppression was ≤ 0.026.
In the case of C5U U16G A30G, the nonsense suppression is reported as ≤ 0.026.
With C5U U16G G66C the nonsense suppression was ≤ 0.026.
In the case of C5U U16G U70G, the nonsense suppression is reported as ≤ 0.026.
For C5U U17A G88C, the nonsense suppression was ≤ 0.026.
For C5U U17A U63C C80A, the nonsense suppression was ≤ 0.026.
With C5U U17C A54G A60C the nonsense suppression was ≤ 0.026.
With C5U U20A A24G C64U the nonsense suppression was ≤ 0.026.
With C5U U20C A23C U63C A89G the nonsense suppression was ≤ 0.026.
In the case of C5U U20G A24G, the nonsense suppression is reported as ≤ 0.026.
For C5U U21G, the nonsense suppression was ≤ 0.026.
In the case of C5U U21G C72A, the nonsense suppression is reported as ≤ 0.026.
For C5U U22A C34A A54G, the nonsense suppression was ≤ 0.026.
With C5U U22C A23U G26C C27U the nonsense suppression was ≤ 0.026.
In the case of C5U U22C U57C A74C, the nonsense suppression is reported as ≤ 0.026.
For C5U U22G G28C G61U U71G, the nonsense suppression was ≤ 0.026.
In the case of C5U U35C, the nonsense suppression is reported as ≤ 0.026.
In the case of C5U U55A A62G G66C C77G, the nonsense suppression is reported as ≤ 0.026.
In the case of C5U U55C G84U, the nonsense suppression is reported as ≤ 0.026.
In the case of C5U U55G, the nonsense suppression is reported as ≤ 0.026.
With C5U U55G C68A A74U the nonsense suppression was ≤ 0.026.
With C5U U57A U63A the nonsense suppression was ≤ 0.026.
For C5U U57C G65A, the nonsense suppression was ≤ 0.026.
For C5U U57G C79A, the nonsense suppression was ≤ 0.026.
For C5U U58A G59A U63A G69C U70G, the nonsense suppression was ≤ 0.026.
With C5U U58C G84A the nonsense suppression was ≤ 0.026.
Variant C5U U63A has a nonsense suppression of 0.0305.
In the case of C5U U71C, the nonsense suppression is reported as ≤ 0.026.
In the case of C5U U71G, the nonsense suppression is reported as ≤ 0.026.
For C5U U71G G78C, the nonsense suppression was ≤ 0.026.
In the case of C5U U76A, the nonsense suppression is reported as ≤ 0.026.
In the case of C5U U76A C79A, the nonsense suppression is reported as ≤ 0.026.
In the case of G6A A9G U63G C79U, the nonsense suppression is reported as ≤ 0.026.
For G6A A9U A87G, the nonsense suppression was ≤ 0.026.
In the case of G6A A9U A87U, the nonsense suppression is reported as ≤ 0.026.
With G6A A13C A23C C34U A62G A89C the nonsense suppression was ≤ 0.026.
For G6A A13G C56A, the nonsense suppression was ≤ 0.026.
In the case of G6A A13U C56G C79U C82A, the nonsense suppression is reported as ≤ 0.026.
For G6A A14C, the nonsense suppression was ≤ 0.026.
For G6A A14C G26U, the nonsense suppression was ≤ 0.026.
For G6A A14G, the nonsense suppression was ≤ 0.026.
With G6A A14G A23C U63A the nonsense suppression was ≤ 0.026.
With G6A A23C U57A the nonsense suppression was ≤ 0.026.
For G6A A23G G25C U63C C80G, the nonsense suppression was ≤ 0.026.
With G6A A23U the nonsense suppression was ≤ 0.026.
For G6A A24C A31G C64U, the nonsense suppression was ≤ 0.026.
Work on G6A A24G yielded a nonsense suppression of 0.0293.
Work on G6A A24U yielded a nonsense suppression of 0.0308.
For G6A A30C, the nonsense suppression was ≤ 0.026.
With G6A A54G the nonsense suppression was ≤ 0.026.
In the case of G6A A62U U63G, the nonsense suppression is reported as ≤ 0.026.
In the case of G6A A74G, the nonsense suppression is reported as ≤ 0.026.
For G6A A87C, the nonsense suppression was ≤ 0.026.
With G6A C11A A74C the nonsense suppression was ≤ 0.026.
For G6A C11A U55G C75A, the nonsense suppression was ≤ 0.026.
For G6A C11U G66A C81U, the nonsense suppression was ≤ 0.026.
With G6A C12G A13U the nonsense suppression was ≤ 0.026.
For G6A C29A, the nonsense suppression was ≤ 0.026.
In the case of G6A C29G A62C C75G, the nonsense suppression is reported as ≤ 0.026.
In the case of G6A C29G A62C C75U, the nonsense suppression is reported as ≤ 0.026.
For G6A C34G, the nonsense suppression was ≤ 0.026.
